Laboratory results: paper PMC4336329 (PLoS ONE, 2015)
In all, about 310,000 compounds went through this assay and about 2,200 (0.71%) showed an effect of 50% or more. The effect is printed as a negative number. The list shows a part of the results.

biological target: human ether-à-go-go-related gene (hERG) potassium channel (human, UniProt Q12809); experiment: primary screen, population patch clamp on CHO cells stably expressing hERG
Sequence (Q12809 whole entry, looked up): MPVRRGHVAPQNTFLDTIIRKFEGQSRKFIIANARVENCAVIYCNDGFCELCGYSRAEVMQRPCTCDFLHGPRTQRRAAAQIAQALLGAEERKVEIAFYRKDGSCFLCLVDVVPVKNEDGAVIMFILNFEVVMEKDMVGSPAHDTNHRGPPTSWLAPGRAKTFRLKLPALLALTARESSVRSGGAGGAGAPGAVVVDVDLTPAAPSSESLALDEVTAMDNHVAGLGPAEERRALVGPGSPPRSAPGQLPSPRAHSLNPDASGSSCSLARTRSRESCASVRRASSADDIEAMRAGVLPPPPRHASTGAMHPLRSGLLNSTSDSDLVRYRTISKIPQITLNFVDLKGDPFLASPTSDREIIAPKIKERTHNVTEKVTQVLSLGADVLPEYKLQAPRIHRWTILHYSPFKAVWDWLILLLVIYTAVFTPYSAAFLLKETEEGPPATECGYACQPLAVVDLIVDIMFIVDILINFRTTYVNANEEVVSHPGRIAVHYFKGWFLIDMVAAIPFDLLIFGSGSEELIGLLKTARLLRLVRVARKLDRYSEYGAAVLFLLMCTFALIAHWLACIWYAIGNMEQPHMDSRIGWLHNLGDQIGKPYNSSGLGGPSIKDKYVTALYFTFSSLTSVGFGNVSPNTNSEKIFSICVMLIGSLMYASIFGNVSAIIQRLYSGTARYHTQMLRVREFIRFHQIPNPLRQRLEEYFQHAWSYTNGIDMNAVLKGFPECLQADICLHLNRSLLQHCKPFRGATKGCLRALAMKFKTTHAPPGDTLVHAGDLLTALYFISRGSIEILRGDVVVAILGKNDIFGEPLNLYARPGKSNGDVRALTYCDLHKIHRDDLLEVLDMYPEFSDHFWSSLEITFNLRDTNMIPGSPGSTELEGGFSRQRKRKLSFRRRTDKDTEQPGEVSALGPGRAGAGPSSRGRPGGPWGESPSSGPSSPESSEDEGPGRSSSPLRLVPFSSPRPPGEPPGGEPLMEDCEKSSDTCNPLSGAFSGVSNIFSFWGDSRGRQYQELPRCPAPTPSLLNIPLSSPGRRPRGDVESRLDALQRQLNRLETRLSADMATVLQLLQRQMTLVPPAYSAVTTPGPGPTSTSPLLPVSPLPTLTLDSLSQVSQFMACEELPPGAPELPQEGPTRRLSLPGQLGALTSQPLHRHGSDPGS

| SMILES | hERG current change (%, negative = inhibition) at 1uM [%] |
| --- | --- |
| Cc1oc(C(=O)O)cc1COc1ccccc1Cl | 6.57 |
| CCN(CCCNC(=O)C1CCN(S(=O)(=O)CC)CC1)c1cccc(C)c1 | -8.2 |
| COc1ccc(CNC(=O)COC(=O)CN2C(=O)C(C)Oc3ccc(C)cc32)cc1 (centres unmarked) | 9.75 |
| CCN(CC)c1ccc(/C=N\N2CCN(Cc3ccc(C)cc3)CC2)cc1 | 12.9 |
| Cn1c(CNC(=O)CNS(=O)(=O)c2ccc(Br)cc2)cc(=O)n(C)c1=O | 12.6 |
| Cc1cc(N2C(=O)C(=O)/C(=C(/O)c3ccccc3)C2c2cccc(Br)c2)no1 (centres unmarked) | 3.48 |
| COc1ccc(CN(CC(=O)NC2CCCCC2)C(=O)CCC(=O)Nc2nccs2)cc1 | 12.8 |
| Cc1ccc(CN2CC(=O)N3[C@H]4c5cc(Cl)ccc5OC[C@@H]4[C@H](c4ccccc4)[C@]3(C)C2=O)cc1 | 8.54 |
| Cc1cccc(Cn2nc(C(C)(C)C)cc2C(=O)Nc2ccc(F)cc2)c1 | 12 |
| CCCSc1nsc(N)n1 | -3.27 |
| Nc1nnc(Cc2ccc(Cl)cc2Cl)s1 | 10.5 |
| CCCCOc1ccc(/C=c2\sc3ncnn3c2=O)cc1 | 0.729 |
| O/N=C/c1ccn(-c2ccc(Br)cc2)c1 | 13.6 |
| Cc1ccccc1NC(=O)CCOc1ccccc1 | 10.9 |
| CN1C(=O)CC(Sc2ccccc2C(=O)O)C1=O (centres unmarked) | -11.6 |
| Clc1cccc(N/N=C/c2ccc(N3CCOCC3)s2)c1 | 9 |
| Cn1c(CNC(=O)c2ccccc2F)nnc1SCC(=O)NCc1ccccc1 | 11 |
| N#Cc1c(N)sc(=S)c2c1CCCCC2 | 5.71 |
| CCn1c(SCC(=O)N/N=C/c2c[nH]c3ccccc23)nnc1-c1ccc(C)cc1 | 9.39 |
| Cc1ccc(OCC(=O)N2CCc3ccccc3C2)cc1 | 13.1 |
| OC(CN1CCN(c2ccccc2)CC1)c1ccc2c(c1)CCN2 (centres unmarked) | 0.0556 |
| COCCN(CCOC)c1nc(-c2ccc([N+](=O)[O-])cc2)nc2ccccc12 | -7.36 |
| O=C(COc1cc(O)c2c(=O)c3ccccc3oc2c1)OCc1ccccc1 | 10.6 |
| COCCOC(=O)c1c(C)n(C)c2ccc(OC(=O)c3cccs3)cc12 | 16.2 |
| Cc1ccc(-c2c(C)n([O-])c3c([n+]2=O)CCCC3)o1 | 10.2 |
| CCSc1nnc(NC(=O)Cn2cnc3c2c(=O)n(C)c(=O)n3C)s1 | 7.32 |
